The values below come from the supplement of paper PMC10369915.

First the molecules themselves.
B1: FERMT2_HUMAN_193 (peptide)
chain: SKTMTPTYDAHDGSP
B2: FER_HUMAN_402 (peptide)
chain: EPPPVVNYEEDARSV
B3: FLOT2_HUMAN_163_YA (peptide)
chain: DVADKVDYLSSLGKT
B4: FGFR1_HUMAN_766 (peptide)
chain: ALTSNQEYLDLSMPL
B5: FGR_HUMAN_34 (peptide)
chain: SYGAADHYGPDPTKA
B6: FLT3_HUMAN_572_YA (peptide)
chain: KAKKQFRYESQLQMV
B7: FGFR2_HUMAN_657 (peptide)
chain: DINNIDYYKKTTNGR
B8: FCERB_HUMAN_225_YA (peptide)
chain: VAEELNIYSATASEL
B9: AFAP1_HUMAN_451 (peptide)
chain: TDPEALHYDYIDVEM
B10: FLT3_HUMAN_572 (peptide)
chain: KYKKQFRYESQLQMV
B11: AFAP1_HUMAN_94 (peptide)
chain: SSLPEGYYEEAVPLS
B12: 2ABB_HUMAN_295_YA (peptide)
chain: KFSHSGRYIMTRDAL
B13: FCERG_HUMAN_65 (peptide)
chain: YEKSDGVYTGLSTRN
B14: FHIT_HUMAN_145 (peptide)
chain: EAAALRVYFQGGGGG
B15: FGFR1_HUMAN_654 (peptide)
chain: DIHHIDYYKKTTNGR
B16: FAK2_HUMAN_834 (peptide)
chain: KSLDPMVYMNDKSPL
B17: FCRL3_HUMAN_722 (peptide)
chain: EEDDEENYENVPRVL
B18: FKBP4_HUMAN_220_YA (peptide)
chain: KGEHSIVYLKPSAAF

The other results are listed elsewhere or left out. Cut-off read from the data, not from the text of the source: active = 3.2 or more and inactive = the rest. The signal is at background level for most entries.
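Note: displayed peptides selected on beads carrying the immobilized SH2 domain, with library peptides lacking any tyrosine serving as negative controls.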

One test concerns the target SHP2 C-SH2 domain E139D. Put plainly: enrichment score (SH2-bound / input frequency) (ratio); bacterial display of known human phosphotyrosine sites (pTyr-Var adds point mutants) read by sequencing; higher = stronger binding; tyrosines were phosphorylated by kinases first. As to conditions: peptide library: Human pTyr.
Regarding B1, the enrichment score is inactive: 0.865.

For the molecule B2, the enrichment score was inactive: 0.878.

Regarding B3, the enrichment score was inactive: 0.548.

In the case of B4, the enrichment score was inactive: 0.858.

Take B5: the enrichment score is inactive: 0.647.

Take B6: the enrichment score is inactive: 1.37.

With B7, the enrichment score was inactive: 1.21.

In the case of B8, the enrichment score is inactive: 0.646.

Regarding B9, the enrichment score is inactive: 0.957.

In the case of B10, the enrichment score was inactive: 1.16.

As for B11, the enrichment score is inactive: 0.552.

Take B12: the enrichment score is inactive: 2.99.

With B13, the enrichment score was inactive: 0.589.

B14: the enrichment score was inactive: 0.841.

Regarding B15, the enrichment score is inactive: 1.31.

In the case of B16, the enrichment score was inactive: 1.03.

For the molecule B17, the enrichment score was inactive: 1.04.

As for B18, the enrichment score was inactive: 1.09.

Another test deals with SHP2 C-SH2 domain wild-type. Described as above. As to conditions: peptide library: Human pTyr.
Consider B1, for which the enrichment score was inactive: 0.611.

In the case of B2, the enrichment score was inactive: 0.892.

As for B3, the enrichment score is inactive: 0.612.

For B4, the enrichment score is inactive: 0.847.

Take B5: the enrichment score was inactive: 0.541.

Regarding B6, the enrichment score was inactive: 1.32.

B7: the enrichment score was inactive: 0.797.

Take B8: the enrichment score is inactive: 0.551.

With B9, the enrichment score is inactive: 0.888.

With B10, the enrichment score was inactive: 0.75.

B11: the enrichment score was inactive: 0.655.

B12: the enrichment score was inactive: 3.12.

In the case of B13, the enrichment score is inactive: 0.494.

Regarding B14, the enrichment score was inactive: 0.736.

With B15, the enrichment score is inactive: 0.935.

Consider B16, for which the enrichment score was inactive: 0.608.

For B17, the enrichment score was inactive: 0.893.

Regarding B18, the enrichment score was inactive: 0.914.

A further test deals with SHP2 N-SH2 domain L43F. The description is as above. The following applies: peptide library: Human pTyr.
For B1, the enrichment score was inactive: 0.666.

In the case of B2, the enrichment score is inactive: 0.784.

Consider B3, for which the enrichment score was inactive: 0.712.

Regarding B4, the enrichment score was inactive: 0.599.

As to B5, the enrichment score was inactive: 0.493.

As for B6, the enrichment score is inactive: 1.34.

On to B7, for which the enrichment score was inactive: 0.987.

B8: the enrichment score is inactive: 0.779.

In the case of B9, the enrichment score was inactive: 2.36.

For the molecule B10, the enrichment score is inactive: 0.812.

On to B11, for which the enrichment score was inactive: 0.618.

For B12, the enrichment score is inactive: 2.87.

On to B13, for which the enrichment score was inactive: 0.767.

B14: the enrichment score is inactive: 0.83.

Consider B15, for which the enrichment score was inactive: 1.03.

In the case of B16, the enrichment score is inactive: 0.856.

With B17, the enrichment score is inactive: 0.88.

For the molecule B18, the enrichment score is inactive: 1.11.

The target of a further test is SHP2 N-SH2 domain T42A. The test is described as above. The following applies: peptide library: Human pTyr.
Take B1: the enrichment score is inactive: 0.774.

On to B2, for which the enrichment score was inactive: 0.985.

Turning to B3, the enrichment score is inactive: 0.584.

For the molecule B4, the enrichment score is inactive: 0.481.

Take B5: the enrichment score was inactive: 0.443.

In the case of B6, the enrichment score is inactive: 1.14.

On to B7, for which the enrichment score was inactive: 0.545.

On to B8, for which the enrichment score is inactive: 0.792.

Regarding B9, the enrichment score was inactive: 2.71.

Consider B10, for which the enrichment score is inactive: 0.855.

Turning to B11, the enrichment score is inactive: 0.596.

On to B12, for which the enrichment score was inactive: 3.05.

As for B13, the enrichment score is inactive: 0.5.

For B14, the enrichment score is inactive: 0.759.

For B15, the enrichment score is inactive: 1.18.

With B16, the enrichment score is inactive: 0.803.

For the molecule B17, the enrichment score was inactive: 1.11.

For B18, the enrichment score was inactive: 1.58.

In a further test the target is SHP2 N-SH2 domain T52S. Described as above. The following applies: peptide library: Human pTyr.
On to B1, for which the enrichment score is inactive: 0.783.

As to B2, the enrichment score was inactive: 0.834.

On to B3, for which the enrichment score was inactive: 0.728.

As for B4, the enrichment score was inactive: 0.625.

As to B5, the enrichment score is inactive: 0.559.

Take B6: the enrichment score was inactive: 1.3.

Consider B7, for which the enrichment score is inactive: 0.984.

B8: the enrichment score was inactive: 0.568.

In the case of B9, the enrichment score is inactive: 1.91.

Turning to B10, the enrichment score is inactive: 0.912.

Take B11: the enrichment score is inactive: 0.533.

For B12, the enrichment score is active: 3.22.

Consider B13, for which the enrichment score was inactive: 0.653.

On to B14, for which the enrichment score is inactive: 0.77.

Regarding B15, the enrichment score was inactive: 0.834.

B16: the enrichment score is inactive: 0.653.

On to B17, for which the enrichment score was inactive: 1.12.

Turning to B18, the enrichment score is inactive: 1.23.

In the next test the target is SHP2 N-SH2 domain wild-type. The test is described as above. The following applies: peptide library: Human pTyr.
With B1, the enrichment score was inactive: 0.922.

B2: the enrichment score was inactive: 0.965.

For B3, the enrichment score is inactive: 0.594.

With B4, the enrichment score was inactive: 0.766.

On to B5, for which the enrichment score is inactive: 0.577.

With B6, the enrichment score is inactive: 1.33.

For the molecule B7, the enrichment score was inactive: 1.04.

With B8, the enrichment score was inactive: 0.966.

As to B9, the enrichment score was inactive: 1.12.

In the case of B10, the enrichment score was inactive: 0.951.

As for B11, the enrichment score is inactive: 0.664.

With B12, the enrichment score was active: 3.85.

As to B13, the enrichment score is inactive: 0.473.

With B14, the enrichment score is inactive: 0.829.

For the molecule B15, the enrichment score is inactive: 0.904.

B16: the enrichment score is inactive: 0.637.

With B17, the enrichment score is inactive: 1.2.

For B18, the enrichment score is inactive: 1.08.
